# Whole data set: some 33,000 sequences, median “E-score (-0.5 to 0.5)” near -0.016, cut for the highest 2% near 0.31. The list shows a part of the results.
# Molecular target: Cst6 (UniProt P40535)
# Experiment: PBM E-score (8-mer binding enrichment) (E-score (-0.5 to 0.5)); higher = stronger / more preferred TF binding; most listed sequences are background and not binding sites
# Conditions: protein concentration: 200 nM; construct: GST-DNA-binding domain
# Outline: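 Using PURExpress in vitro transcription/translation, GST-tagged yeast transcription factors were made in full-length or DNA-binding-domain form. These were applied at about 100-200 nM to double-stranded universal all-10-mer Agilent arrays, and bound protein was detected with fluorescent anti-GST. Scans were normalised with masliner before the Universal PBM Analysis Suite assigned E-scores to ungapped eight-base words pooled with their reverse complements.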
row,Sequence,PBM E-score
1,ATCCCTTG,-0.185
2,CAAGGAAG,-0.0668
3,GAGATACC,-0.024
4,ATCAGAAG,0.0706
5,AGGCAGCG,-0.188
6,CACCTCAC,0.0768
7,CTTGTATC,0.0546
8,GCCGGACC,-0.239
9,TACCGCGA,-0.0682
10,GTGAAAGA,0.181
11,AGTAGTTG,-0.0108
12,CTGACCTC,0.0456
13,AAATCGTG,0.22
14,GAAAGAGC,0.0402
15,CCCAAACG,-0.0804
16,ATGCACGG,0.026
17,CCCACGGC,0.187
18,GCAGGCCA,-0.174
19,GAATATGA,0.177
20,AGGGTCTA,-0.0972
21,CATTAGTC,-0.0559
22,ACCGTTGG,-0.3
23,ACATGAGG,0.0709
24,CTTTTACA,0.273
25,ATCCCACA,-0.17

row,Sequence,PBM E-score
1,ACGGGGTC,-0.288
2,ATTCAGCC,-0.0321
3,ACGGCGCA,0.349
4,CGAAAGAC,-0.0399
5,GGTGTAAC,0.106
6,CATGCGGA,-0.0527
7,CCAGGATA,-0.0745
8,AGTGCACC,-0.0537
9,ACACACAG,0.107
10,ACGTTATA,0.31
11,ATGATGAG,0.232
12,CGCACCCA,0.0312
13,CAGCACGC,-0.131
14,GTCTACTA,0.126
15,ACAACGGC,-0.0142
16,ACAACCCA,0.00152
17,AGTGCATC,0.00383
18,AAGGGAGG,-0.241
19,AAGGCGGA,-0.0675
20,CGTCGACG,-0.104
21,GTAGTTGA,0.105
22,GCACCTCA,0.077
23,CATCTTAA,0.211
24,CGAGGTAG,-0.349
25,AACCTGAG,-0.0491

row,Sequence,PBM E-score
1,CTCAACGC,-0.0592
2,AAATGACG,0.466
3,CGCTTCAG,-0.105
4,GTACAATA,0.164
5,TACGGCGA,0.23
6,AGAGCATC,-0.0634
7,GGCGGCGA,-0.0549
8,CCGAGTAC,-0.174
9,CCTATAAC,-0.0781
10,AAGTCGTA,-0.0323
11,ATATATCG,0.228
12,ACTCCCTG,-0.128
13,GGGGGCAA,-0.198
14,CAGACCTC,-0.0708
15,CAGGGCAA,-0.117
16,AGTCAACA,0.15
17,CATCAAGA,0.104
18,AACGTAAC,0.329
19,AAAAGTCT,-0.0201
20,TGAATACA,0.218
21,CAAAATAG,-0.0783
22,AGCGACAG,-0.155
23,AGCATGGA,-0.0241
24,AGCGACTC,-0.325
25,GTGGTGTA,0.0521

row,Sequence,PBM E-score
1,GCTAGTCA,-0.0571
2,GGTGAAAA,0.15
3,CGCAGAGA,-0.0733
4,AATAAATA,0.39
5,AGCTCCTG,-0.215
6,AATAAAGG,0.0727
7,TGAGTTAA,0.111
8,CCCAAGAG,-0.164
9,AGGGCACC,-0.282
10,AGAAGCCG,-0.0196
11,GATCTCCC,-0.231
12,ACAACAAT,0.0902
13,ATGCAGTC,-0.00946
14,CACCCGAG,-0.179
15,ACTTGGCT,-0.2
16,AGCTATTC,-0.0621
17,GGCGCTCA,-0.0432
18,CTAACAGA,0.0449
19,GTGCATAA,0.0813
20,GTGGTCCA,-0.0434
21,ACCAAACT,0.0423
22,ACCATGAA,0.0849
23,AGTTGGCC,-0.175
24,GCTTCCAC,-0.155
25,ATGCCAGA,0.0534

row,Sequence,PBM E-score
1,CGGGCGCC,-0.00681
2,AATTGAGG,0.0898
3,AAGATCCT,-0.0251
4,GCCCAAGA,-0.225
5,ATATATCA,0.155
6,ACCGCCTC,-0.223
7,AAGGCAAC,0.113
8,ACGGGACA,-0.177
9,CAGATTTA,0.193
10,AAGGTCGC,-0.115
11,ACAGATCT,0.02
12,CTATTCAG,0.111
13,AGAGGGGC,-0.279
14,AATCACCC,-0.00614
15,GCTGTAAC,0.0807
16,AAAGATAC,0.191
17,ATACTCTA,0.0421
18,GTCGCCGA,0.0105
19,AACCCGTC,-0.102
20,GCAGTAAC,-0.065
21,ACTTCAAC,0.0206
22,GAGACACA,-0.0694
23,AAAAACTA,0.22
24,CTTAGTCC,-0.194
25,TCACTAGA,0.232

row,Sequence,PBM E-score
1,CGTGTGGA,-0.153
2,TACCGCTA,-0.171
3,TAGCCGAA,-0.139
4,AGAACCGC,0.101
5,AGACACTC,-0.142
6,CAGTAATG,0.0646
7,CGTTATAC,0.104
8,CCTCGGCC,-0.205
9,ACACCCAC,-0.169
10,CAAATAAG,0.09
11,AGTAACTA,0.125
12,ATTAGATG,0.226
13,CATTCAAC,0.14
14,TAAGGGAA,0.0135
15,CATCCGGC,-0.277
16,TTAAAGAA,0.146
17,CTCGCAAC,-0.00192
18,GCCTACGC,-0.0546
19,AATAATAG,0.209
20,CATCGCGC,-0.0406
21,AAAGTATG,0.0197
22,CAAAAAAG,0.254
23,ACGTGGTA,0.0738
24,GATACCAA,0.058
25,CTTGACGA,0.00985

row,Sequence,PBM E-score
1,TCGTTTCA,0.0851
2,CGAGTCGA,-0.0258
3,ACATTGCC,-0.0654
4,CGGGAGAG,-0.377
5,AGCGAATC,-0.0537
6,GATACTCC,-0.0696
7,GCCTAGAC,-0.224
8,CAGTATAA,0.17
9,AAACAGTC,-0.0973
10,ACACTTAA,0.105
11,AACCCCGT,-0.104
12,ATGTAGGG,-0.209
13,ACTGGATA,0.163
14,CTTGCTAC,-0.163
15,ACGTGGTC,0.11
16,AGTTAATG,0.234
17,ATTAATCC,0.121
18,CCCACGCA,-0.0607
19,TCTGCTAA,-0.00199
20,ACTCCTCT,-0.18
21,CTATTCTC,-0.138
22,CTGGGCAC,-0.196
